Values marked as one replicate rest on one cluster of the flow cell; about a third of the high ones do not repeat.
System: ATP
Assay: switch fluorescence ratio, 500 uM ATP over buffer (Cy3 cluster intensity, sum of 5 cycles each) (fold (ratio)); higher = stronger signal-on switching upon ATP binding; sequences stand for … in TCGTCGGCAGCGTCAGATGTGTATAAGAGACAGTTTTTTTTTTTTTTTTTTTTTTTTT…TC
Conditions: aptamer strand: ATP DNA aptamer (quencher-CACCTGGGGGAGTATTGCGGAGGAAGG + anchor), 100 nM annealed; ATP concentration: 500 uM; one replicate
Method in brief: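 Values give the fluorescence ratio for each switch-domain sequence, averaged from per-cluster ratios of summed target-cycle to summed buffer-cycle Cy3 intensity. The Cy3-labelled switching-strand clusters sat on a modified Illumina MiSeq flow-cell, were annealed to 100 nM quencher-labelled ATP aptamer, and were imaged in selection buffer, then after 15 min with 500 uM ATP at 22 °C. Five cycles ran with NaOH stripping and re-annealing between them, and clusters outside 100-1000 RFU were excluded.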
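Further: ATP exposure 15 min at 22 °C before imaging.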

Sequence	switch fluorescence ratio
TTTGTGGAAG	1.01
TTTGTTGATC	1.03
TTTGTTTCTC	0.992
TTTTAATGCC	0.986
TTTTACATAT	1.01
TTTTACATGT	1.01
TTTTACGACG	0.989
TTTTACGACT	1.02
TTTTACGTTC	0.941
TTTTACTA	1
TTTTACTCGT	1.03
TTTTATCACG	0.97
TTTTATCTGC	1.01
TTTTATGTAG	0.999
TTTTATTAAC	0.988
TTTTATTGT	1.1
TTTTCAGCGG	1.03
TTTTCCGTA	0.967
TTTTCGGGG	0.978
TTTTCTATCA	1.01

Sequence	switch fluorescence ratio
TTTTCTATTA	1
TTTTCTGTT	1
TTTTCTTAT	1.03
TTTTCTTCGC	1.19
TTTTGGAGTG	0.983
TTTTGGTAT	1.01
TTTTGGTCG	1.05
TTTTGTACCG	1.01
TTTTGTCAGT	0.962
TTTTGTCTC	1.03
TTTTGTTATC	0.997
TTTTGTTGAC	0.969
TTTTGTTTAA	1.02
TTTTTAACCA	0.985
TTTTTAGGCT	1.02
TTTTTCCAGG	1.61
TTTTTCGCCC	1.59
TTTTTGCGAG	1.01
TTTTTGGTC	0.964

— the supplement of paper PMC10126150
